Test results: the RNAGym collection of RNA variant scans (doi:10.1073/pnas.2313332121)
Variants at the floor of the assay are shown more often than the library holds them.

B1: TPR 5TU (parent)
chain: GGAUCUUCUCGAUCUAACAAAAAAGACAAAUCUGCCACAAAGCUUGAGAGCAUCUUCGGAUGCAGAGGCGGCAGCCUUCGGUGGCGCGAUAGCGCCAACGUUCUCAACUAUGACACGCAAAACGCGUGCUCCGUUGAAUGGAGUUUAUCAUG

Variants of: B1
Test: polymerase ribozyme fitness, log enrichment relative to wild type (log ratio); higher = more active; in vitro selection for triplet polymerase activity
Summary of the method: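 Each subunit of a heterodimeric triplet polymerase ribozyme was represented by a PCR-built, transcribed mutant library that underwent triplicate single-round in vitro selection with frozen incubation at −7 °C. Extended constructs were recovered by gel excision, streptavidin-bead capture and RT-PCR, and Illumina sequencing of input and output libraries kept genotypes with ≥10 input reads and ≥1 read per output. Fitness is the logarithm of genotype enrichment relative to wild-type enrichment, from inverse-variance-weighted replicate averages, with a logarithm base of 2.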

Variant	polymerase ribozyme fitness (log ratio)
U77A G84A U102C U144C U148A C149G	≤ -4.2
C76U U135C	-2.53
U78G G133C U139C G152U	≤ -4.2
U78A G92A U101C C129A A137C U148A C149U	≤ -4.2
G80A A91C C93U A115G A120G	≤ -4.2
G80A G84A A120G	-1.33
C79G C103U G141A	≤ -4.2
C76U C85A	-2.44
C76U C85G	-0.632
C76U C85U	-2.03
C76A U90C U146G	≤ -4.2
C76A C85U	-0.443
C76A C85G	-3.53
C76A G86A U102G G140A	≤ -4.2
C75U G92U	-2.38
C76U C96A	0.322
C75U C76U U78G C85U	≤ -4.2
C76G G81A U90G C93U A98U A122U	≤ -4.2
C76G G92U C105A G141C	≤ -4.2
C76A G86A	-2.06
C75U A91U U135C	≤ -4.2
C79A A115C G143C U148C	≤ -4.2
C79U G86A C96U C149G	≤ -4.2
C79G U82A U101A A110G	≤ -4.2

Variant	polymerase ribozyme fitness (log ratio)
U77G C96G C131U A138C U148G	≤ -4.2
C76U C85U C96U C108A C116A	≤ -4.2
U77C C116U	-3.64
C76U G94A C105U	-0.337
U77C C95G C96G A97C U151C	≤ -4.2
C76G C105A G152U	≤ -4.2
C76U G84U C125U G141U	-3.46
C79G A91G	≤ -4.2
U78G G88U	≤ -4.2
C75U C85U G86C	-1.49
C76G C105G	≤ -4.2
U77A G94A G140A	≤ -4.2
C75U G92U C93G	-1.13
C76A C87U A142G	-1.46
C79G G84U	≤ -4.2
U78A G81A C93G A97U U151C	≤ -4.2
C79U C103G	≤ -4.2
U78C A142U G143U U146C	≤ -4.2
U78G C85G U135A A137U A150C	≤ -4.2
C79G U148A	≤ -4.2
U78C C103G A107U	≤ -4.2
C76G G88C U104A A137G A138G	≤ -4.2
C79G C85A	≤ -4.2
U78C U146C	0.315

Variant	polymerase ribozyme fitness (log ratio)
C79U G88A C118U U145G	≤ -4.2
C79A A91C	≤ -4.2
C79G U82C C87U	≤ -4.2
C79A C87A A119U G126A G133C A142U	≤ -4.2
C79A U139C A142G U148A	≤ -4.2
C79U G84U	≤ -4.2
C79U G84C	≤ -4.2
C79A C93G	≤ -4.2
C79G U134C U146C	-4.11
U77C G80U A91U A142U U144C	≤ -4.2
C79G A89C	≤ -4.2
C75U U78A G83C A107U C116U C118U	≤ -4.2
C75U G83C C129A U139G	≤ -4.2
U77G C79G C85G A91U C93G A115G A150G	≤ -4.2
C76G C79U C85U C132U	≤ -4.2
U78G C93U A98G A142C	≤ -4.2
C79U C96A A115U A122G G126A	≤ -4.2
C79A C93A U146C	≤ -4.2
C79A G86U A137C A150G	≤ -4.2
U78C U127C G128U A138U	≤ -4.2
U77A U134G	≤ -4.2
C79A G80U C85U C96G U102C U104C	≤ -4.2
C75U A91G C99U	-3.56
G80C C85G U151G	≤ -4.2

Variant	polymerase ribozyme fitness (log ratio)
C79U C85U A89U C118A C131A	≤ -4.2
C76A C93A G112U	≤ -4.2
G80A G88C A89G C93U C105U C116A	≤ -4.2
U77A C85G U144G	≤ -4.2
U78A G133A U139G	≤ -4.2
U77A C87U A119U C125G U139G	≤ -4.2
U78G G141A	≤ -4.2
U77G A91G	≤ -4.2
U77G U82A A110C G136A A137U A138U	≤ -4.2
G80C C85A C99A C131A	≤ -4.2
G80A C93G C96U	-3.96
C76U C87U U102C	-1.82
C76G C105G U111C	≤ -4.2
G80A C99G	-1.02
U77C C85A C108A U111C A113U	≤ -4.2
C79A C99G	≤ -4.2
C76A U145G	-0.329
C76A A91U	≤ -4.2
C76A A91G	-3.83
U77A G83U C85A G94C G124A A147U	≤ -4.2
G80C C85A C96G U102A	≤ -4.2
C79G C95U A150G	≤ -4.2
C76G G143U G152U	≤ -4.2
C76G C96A A122U	≤ -4.2

Variant	polymerase ribozyme fitness (log ratio)
C76U C85U U101C U145G	-0.2
C75U G83U C129G U144G	≤ -4.2
C79U C87A U139A	≤ -4.2
C76U G84A U101A	-0.872
C79A G86C G136U A138U	≤ -4.2
C79U G140U	-3.68
C75U C95G C96G	-3.09
C76U G84A A110U C118A G140A	≤ -4.2
C76A G140C	-3.36
C75U G81A C95U G100A	≤ -4.2
C79U C85A A142C	≤ -4.2
C79G C87U G100U	-2.91
C76U C93U	-2.28
C76G C96A U104G G112C	≤ -4.2
C76G G94C	≤ -4.2
U77C G88U C93A A110G A122U	≤ -4.2
C79U A97G	-3.02
C76G C96U C125G A150C	≤ -4.2
C75U A89C C95U	-0.65
C75U C85U C93U U109G C149U	≤ -4.2
G80A C93U C149G	≤ -4.2
C76G G88U A91G U135A A138C	≤ -4.2
C76A G84A U134G	-2.67
C75U G84U C99U A115C	-3.35

Variant	polymerase ribozyme fitness (log ratio)
C76U U82A C129G U151C	≤ -4.2
C75U U82C C116A	0.695
C75U G84U U101C A120U U151G	≤ -4.2
C76U C103A U130C	≤ -4.2
C75U U82G A91C C105U G141A	≤ -4.2
C76A C93G G100A	≤ -4.2
C76A C96U A121C	0.584
U78G C87A A98U	≤ -4.2
C76U C85A U111C C114A	≤ -4.2
C79U U90C U104G U111G	≤ -4.2
C79U A91U C125A	≤ -4.2
C75U G81A C85A C95G A98U	-3.71
C79A G84A G92C A107G	≤ -4.2
U77A C85U G94U U102C G143U	≤ -4.2
C76A G84A	-0.957
C79G C114U	≤ -4.2
G80A G126A	-0.283
C76A C79U C125U G140U	≤ -4.2
G80A G83A A106U C116G U139C G143A	≤ -4.2
C76A A110U U139C G143U	≤ -4.2
C76U U139G	-0.649
C76A G88C	≤ -4.2
C79U C93A A98U A122U	-4
C75U A91C	≤ -4.2

Variant	polymerase ribozyme fitness (log ratio)
C75U A91G	-3.07
C79A C93A U134A U135A	≤ -4.2
C79U A98G	-3.44
U78A A91C C125A	≤ -4.2
U78G G94U	-3.47
G80A A142U U144C	-3.55
C76U G88C U104G A150G	≤ -4.2
U77G A89U C95A C114U C125G	≤ -4.2
U77G C85G G136C A137G G143A U146G	≤ -4.2
C76U G117A	0.649
C76U A122U	0.0697
U78A C93A G94U	-4.16
C76U C87U C116A A122U U146G	-3.7
C75U G92A C108A C132U	≤ -4.2
C79U C85G U101G	≤ -4.2
U77A A107U	≤ -4.2
U77A A107G	≤ -4.2
C75U G84U U134C	-1.39
U77G A89G A106C G133A	≤ -4.2
U78G A107U C125U	≤ -4.2
C76A C93G	≤ -4.2
C76U G88A C108G A115U G143C U146A	≤ -4.2
C76A C96U G140U	-3.67
